# Reference: article PMC4336329 (PLoS ONE, 2015)
# In all, about 310,000 compounds went through this assay and about 14,000 (4.5%) showed an effect of 50% or more. The effect is printed as a negative number. This is one part of the list.
# Molecular target: human ether-à-go-go-related gene (hERG) potassium channel (human, UniProt Q12809)
# Experiment: primary screen, population patch clamp on CHO cells stably expressing hERG
# 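Further: peak tail current of the secondary pulse compared with the same well before compound.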
# Chain of human ether-à-go-go-related gene (hERG) potassium channel (Q12809 whole entry, looked up): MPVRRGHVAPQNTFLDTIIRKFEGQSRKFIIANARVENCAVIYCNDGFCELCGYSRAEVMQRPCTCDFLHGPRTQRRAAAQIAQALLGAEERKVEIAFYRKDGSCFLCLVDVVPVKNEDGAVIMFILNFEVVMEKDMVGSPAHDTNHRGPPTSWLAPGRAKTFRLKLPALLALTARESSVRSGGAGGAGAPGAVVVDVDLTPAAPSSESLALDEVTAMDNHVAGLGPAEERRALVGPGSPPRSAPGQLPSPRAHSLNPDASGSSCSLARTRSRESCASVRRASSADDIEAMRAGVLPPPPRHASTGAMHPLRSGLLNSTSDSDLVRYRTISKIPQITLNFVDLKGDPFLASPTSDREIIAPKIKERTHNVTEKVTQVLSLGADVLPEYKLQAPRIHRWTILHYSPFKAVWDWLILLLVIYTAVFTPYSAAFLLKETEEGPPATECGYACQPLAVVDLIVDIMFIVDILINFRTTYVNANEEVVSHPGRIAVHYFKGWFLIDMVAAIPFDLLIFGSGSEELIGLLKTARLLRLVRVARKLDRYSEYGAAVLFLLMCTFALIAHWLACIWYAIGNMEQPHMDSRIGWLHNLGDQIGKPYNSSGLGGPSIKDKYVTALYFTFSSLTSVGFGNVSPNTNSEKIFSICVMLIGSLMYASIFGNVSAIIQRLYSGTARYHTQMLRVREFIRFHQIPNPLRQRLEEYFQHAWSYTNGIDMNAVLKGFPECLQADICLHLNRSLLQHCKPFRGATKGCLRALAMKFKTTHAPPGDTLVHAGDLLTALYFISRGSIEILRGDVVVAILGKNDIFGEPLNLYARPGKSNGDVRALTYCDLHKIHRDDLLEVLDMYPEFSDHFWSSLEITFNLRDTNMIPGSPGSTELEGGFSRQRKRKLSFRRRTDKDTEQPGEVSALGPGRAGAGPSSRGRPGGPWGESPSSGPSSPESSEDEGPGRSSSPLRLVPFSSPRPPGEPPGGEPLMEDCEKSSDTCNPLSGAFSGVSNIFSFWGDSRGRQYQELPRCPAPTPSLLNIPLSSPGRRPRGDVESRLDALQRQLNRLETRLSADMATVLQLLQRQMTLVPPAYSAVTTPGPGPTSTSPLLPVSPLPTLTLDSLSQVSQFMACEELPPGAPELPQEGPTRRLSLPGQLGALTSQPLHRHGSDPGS
row,SMILES,"hERG current change (%, negative = inhibition) at 10uM [%]"
1,O=C(COc1ccccc1Cl)NCCCN1CCOCC1,-3.76
2,COc1ccc(N(CCC#N)S(=O)(=O)c2cccc3nsnc23)cc1,-10.1
3,O=C(O)CCC(=O)N1N=C(c2ccccc2)CC1c1ccc2c(c1)OCO2 (stereo not drawn),14
4,Cc1c(NS(=O)(=O)c2ccccc2)cc(Cl)c(O)c1C,-5.08
5,Cc1ccc(C(C(=O)NCc2ccco2)N(C(=O)Cn2nnc3ccccc32)c2ccccc2)o1 (stereo not drawn),-2.02
6,COc1ccc(NC(=O)c2sc3nc(N4CCOCC4)c4c(c3c2N)CC(C)(C)OC4)cc1,10.6
7,Cc1ccc(C)c(NC(=O)CSc2nnc(Cc3cccn3C)n2-c2ccc(F)cc2)c1,0.646
8,CCc1ccc2c(COC(=O)CNS(=O)(=O)c3ccc(NC(C)=O)cc3)cc(=O)oc2c1,6.49
9,Cc1cc(C)cc(N(CCC#N)C(=O)COC(=O)CNC(=O)c2sc3ccccc3c2Cl)c1,-9.94
10,Cn1nc(-c2ccccc2)c(COC(=O)c2cccc(Cl)c2)c1S(=O)(=O)c1ccccc1,-2.01
11,CC1(c2ccccc2)NC(=S)N2C1NC(=S)N2c1ccccc1 (stereo not drawn),10.2
12,CCC(Cc1ccccc1)NS(=O)(=O)c1ccc2c(c1)NC(=O)CS2 (stereo not drawn),-22.7
13,Nc1nc(NCCCN2CCOCC2)nc(Nc2ccc(Cl)cc2)c1[N+](=O)[O-],7.65
14,CCn1c(CNc2cccc(Cl)c2)nnc1SCc1ccccc1,-0.385
15,O=C(CCC(=O)N1CCOCC1)Nc1nnc(C2CCCCC2)s1,-0.44
16,CCOP(=O)(OCC)c1nc(-c2ccccc2)oc1N1CCCCC1,4.4
17,Cc1ccc(Nc2nc(C)cs2)cc1,5.82
18,CCOC(=O)c1c(C)n(Cc2ccco2)c2ccc(OC)cc12,-46.2
19,O=C(NC1CCCCC1)NC1CC2CCC(C1)N2C(=O)NCc1ccccc1 (stereo not drawn),15.3
20,CCN(CC)C(=O)COc1cc(C)cc2oc(=O)c3c(c12)CCCC3,-25.5
21,O=c1[nH]c(O)c(N=Nc2ccc3c(c2)OCCO3)c(=O)[nH]1,14.2
22,COCCn1c(C)cc(C(=O)CSc2nc(C)cc(C)c2C#N)c1C,-8.96
23,COc1ccc(C(=O)NCCc2ccc(C)cc2)cc1OC1CCN(C(C)=O)CC1,-4.05

row,SMILES,"hERG current change (%, negative = inhibition) at 10uM [%]"
1,CCOC(=O)C1=C(CNCc2ccc(C)cc2)NC(=O)NC1c1ccc(OC)cc1 (stereo not drawn),-23.7
2,CCOC(=O)OC(C)OC(=O)[C@@H]1N2C(=O)[C@@H](NC(=O)[C@H](N)c3ccccc3)[C@H]2SC1(C)C.Cl (stereo partly drawn),12.7
3,O=C(CSc1nc(=O)n2ccccc2n1)NCCc1ccccc1,-1.36
4,NC(=O)CSc1nnc(-c2cccs2)n1-c1ccccc1,10.2
5,O=C(Nc1ccccc1)OCc1cc(-c2ccc(Cl)cc2)on1,11.6
6,O=C(CSc1nnc(-c2ccccn2)n1Cc1ccccc1)Nc1ccc2c(c1)OCO2,-5.94
7,CCCCS(=O)(=O)N1CCCC(C(=O)N2CCOCC2)C1 (stereo not drawn),20.3
8,Cc1ccc(SCC(=O)N2CCCC2)cc1,-7.31
9,Cc1ccc(C(c2sc3nc(C)nn3c2O)N2CCN(c3ccc(F)cc3)CC2)cc1 (stereo not drawn),-65.2
10,CCCCN(C)C(=O)c1cc2c(s1)-c1ccccc1S(=O)(=O)C2,-56.5
11,CCOc1ccc(C(c2c(O)nc(SC)[nH]c2=O)c2c(O)nc(SC)[nH]c2=O)cc1,11.1
12,O=C(Nc1nnc(Cc2ccccc2)s1)C1CCN(C(=O)c2ccco2)CC1,-36
13,Cc1ccc(C2=NN(S(=O)(=O)c3ccccc3)C(c3ccco3)C2)cc1 (stereo not drawn),8.53
14,COc1ccc(S(=O)(=O)N2CCN(C(=O)c3cc(C)oc3C)CC2)cc1,0.806
15,CCn1ncc(/C=C/C(=O)NCc2cnn(C)c2C)c1C,13.9
16,CC(=O)N1CCN(C(=O)CNc2cc(C(F)(F)F)ccc2OCC(F)(F)F)CC1,-3.44
17,O=C(COc1cccc2ccccc12)NNC(=O)CSCCO,-7.99
18,CCCCCCNc1c([N+](=O)[O-])cc(C)cc1[N+](=O)[O-],1.09
19,O=C(Nc1ccc(NC(=O)c2cc3ccccc3o2)cc1)c1ccco1,21.8
20,CC(C)(C)c1ccc(C(=O)c2c[nH]c(C(=O)NCCCN3CCOCC3)c2)cc1,-7.27
21,CC1CCC(C(=O)c2c(O)c3ccccc3oc2=O)CC1 (stereo not drawn),15.9
22,Cc1ccc(C(CC(=O)c2ccco2)SCCO)cc1 (stereo not drawn),6.79
